Test results published in patent US12419305B2, “Antimicrobial compositions” (Firmenich SA, priority 2018, dated 2025).
Where “and” joins values, the source holds several entries; their conditions need not be identical. Identical values can stand only once. At least one read-out could not be matched to a standard name with certainty.

Legend:
[1] = test system: C. xerosis ATCC 373; assay: BCT test (bacterial contact time), 120 s, log reduction / effect fraction; CI by Compusyn; type: cell-based, Corynebacterium xerosis; conditions: contact 120 s, 25% EtOH
Method: C. xerosis: Suspensions of the C. xerosis ATCC 373 strain were prepared as follows: Stock cultures (stored at −80° C.) were thawed and subcultured onto Tryptic Soy Agar media with Tween 80 (TSA-TW80), and incubated at 37° C. for 48 h. The primary cultures were subcultured onto TSA-TW80 again, to prepare the secondary cultures. Single colonies of the secondary cultures were selected and used to inoculate 30 ml brain heart infusion broth with Tween 80 (BHI-TW80). The inoculated broth was incubated at 37° C. at 180 rpm for 24 h. Aliquots (1 ml) of the 24 h culture were inoculated into 30 ml of fresh BHI-TW80 broth media, and incubated at 37° C. at 180 rpm for 48 h. Aliquots (2-3 ml) of the 48 h culture were inoculated into four 50 ml of fresh BHI-TW80 broth media, and incubated at 37° C. 180 rpm for 4-6 hrs. When the OD 600 nm reached the target value of 1.6, cells were harvested by centrifugation at 5000 rpm for 10 min, and then resuspended in the same fresh BHI-TW80 at a concentration of 10^9 to 10^10 cfu/mL. This suspension was used as the bacterial suspension for the BCT test.
(§1) BCT Test: Test compositions at a range of concentrations (either combinations of more than one perfume ingredient, and comparative compositions comprising the single perfume ingredients) were prepared in ethanol. Five replicates of each test composition were added into 96-well microtiter plates (120 μl per well), with row B containing control compositions containing the ethanol solution alone. 120 μl of bacterial cell suspensions at a concentration of approximately 1×10^8 bacteria per mL (as prepared above) were added to each well of the microtiter plate. The bacterial suspensions were incubated with the test solutions for 45, 60, or 120 seconds. Following the incubation of the bacterial suspensions with the test solutions, serial dilutions of the bacterial suspensions were generated (three serial 1:10 dilutions, followed by 17 serial 1:2 dilutions), in multiwell microtiter plates.
(§2) Each plate was sealed and incubated at 37° C. under agitation (180 rpm). After incubation, the turbidity of the wells (OD600 nm) was determined using a Tecan microplate reader. Turbid wells were regarded as positive growth, due to the presence of viable cells. The total number of viable cells (log CFU) for each sample was calculated. And the log reduction for each test composition at the final concentration (dose) was calculated against the control sample of the ethanol solution.
(§3) Determination of Synergy via the Combination Index (CI): The CI was calculated using Compusyn software (ComboSyn, Inc., as created by Dr. Dorothy Chou in 2005), according to the manufacturer's instructions. The concentration of each test composition (combinations of more than one perfume ingredient, and comparative compositions comprising the single perfume ingredients used to generate the combination) and their corresponding effect fraction was entered, and the corresponding CI calculated.
(§4) When the calculated CI values were less than 0.9, the combination of perfume ingredients was regarded as having synergistic effect. When the calculated CI was between 1.0 a 0.9, the combination of perfume ingredients was regarded as having an additive effect. When the calculated CI was greater than 1.0, the combination of perfume ingredients was regarded as having an antagonistic effect.

[2] = test system: S. haemolyticus 114126; assay: as above; type: cell-based, Staphylococcus haemolyticus; conditions: contact 120 s, 25% EtOH
Method: S. haemolyticus: Suspensions of the S. haemolyticus 114126 strain, isolated from skin, were prepared as follows: Stock cultures (stored at −80° C.) were thawed and sub-cultured onto TSA-TW80 agar plate media, and incubated at 37° C. for 24 h to obtain single colonies. Single colonies of the primary cultures were streaked onto fresh TSA-TW80 plates and incubated at 37° C. for 24 h to prepare secondary cultures. Single colonies of secondary cultures were picked and used to inoculate 50 mL of BHI-TW80 broth. The inoculated broth was incubated at 37° C. at 180 rpm for 18 h. Aliquots (0.5 ml) of the 18 h culture were inoculated into 50 ml of fresh BHI-TW80 broth, and incubated at 37° C. at 180 rpm for approximately 3 hours. When the OD 600 nm value of the broth reached 1-2, cells were harvested by centrifugation at 5000 rpm for 10 min, and then resuspended in fresh BHI-TW80 broth at a concentration of 1-5×10^8 CFU/mL. This suspension was used as the bacterial suspension for the BCT test.
as §1, §2, §3, §4

[3] = test system: S. aureus ATCC 6538; assay: BCT test (bacterial contact time), 60 s, log reduction / effect fraction; CI by Compusyn; type: cell-based, Staphylococcus aureus; conditions: 60 s, in 25% EtOH
Method: (§5) E. coli, S. aureus, P. aeruginosa, and S. enterica: Separate suspensions of the E. coli ATCC 10536 strain, S. aureus ATCC 6538 strain, Pseudomonas aeruginosa ATCC 15442 strain, and the Salmonella enterica ATCC 10708 strain were prepared as follows: Stock cultures (stored at −80° C.) were thawed and sub-cultured onto Tryptic Soy Agar (TSA) agar plate media, and incubated at 37° C. for 24 h to obtain single colonies. Single colonies of the primary cultures were streaked onto TSA plates and incubated at 37° for 24 h to generate secondary cultures. Single colonies of secondary cultures picked and used to inoculate into 50 mL of TSB broth. The inoculated TSB broth was incubated at 37° C. at 180 rpm for 18 h. Aliquots (0.5 ml) of the 18 h culture were inoculated into 50 ml of fresh TSB broth, and incubated at 37° C. at 180 rpm for 2-3 hours. When the OD600 nm value of the broth reached 1-2, cells were harvested by centrifugation at 5000 rpm for 10 min, and then resuspended in fresh TSB broth at a concentration of 1-5×10^8 CFU/mL. These suspensions were used as the bacterial suspensions for the BCT test.
as §1, §2, §3, §4

[4] = test system: Salmonella enterica ATCC 10708; assay: as above; type: cell-based; conditions: BCT 60 s, in 25% EtOH
Method: as §5, §1, §2, §3, §4

[5] = test system: Pseudomonas aeruginosa ATCC 15442; assay: as above; type: cell-based; conditions: BCT 60 s, in 25% EtOH
Method: as §5, §1, §2, §3, §4

[6] = test system: E. coli ATCC 10536; assay: BCT test (bacterial contact time), 45 s, log reduction / effect fraction; CI by Compusyn; type: cell-based, Escherichia coli
Method: as §5, §1, §2, §3, §4

[7] = dose 0.025% w/v, contact 45 s, 20% EtOH
[8] = dose 0.03% w/v, contact 45 s, 20% EtOH

SMILES: O=c1ccc2ccccc2o1 [Coumarine, 2H-chromen-2-one]
- Effect fraction ([1]; dose 0.75% w/v): −0.02
- Effect fraction ([1]; dose 1.0% w/v): 0.11
- Effect fraction ([1]; dose 1.25% w/v): 0.35
- Effect fraction ([1]; dose 1.5% w/v): 0.37
- Effect fraction ([2]; dose 0.5% w/v): 0.00
- Effect fraction ([2]; dose 0.75% w/v): 0.09
- Effect fraction ([2]; dose 1.0% w/v): 0.23
- Effect fraction ([2]; dose 1.25% w/v): 0.84
- Effect fraction ([2]; dose 1.5% w/v): 1.00
- Effect fraction ([3]; dose 0.500 % w/v): −0.02
- Effect fraction ([3]; dose 0.750 % w/v): 0.05
- Effect fraction ([3]; dose 0.875 % w/v): 0.11
- Effect fraction ([3]; dose 1.000 % w/v): 0.29
- Effect fraction ([3]; dose 1.250 % w/v): 0.97
- Effect fraction ([4]; Dose 0.300 % w/v): 0.03
- Effect fraction ([4]; Dose 0.400 % w/v): 0.40
- Effect fraction ([4]; Dose 0.450 % w/v): 0.68
- Effect fraction ([4]; Dose 0.500 % w/v): 1.00
- Effect fraction ([4]; Dose 0.600 % w/v): 1.00
- Effect fraction ([5]; Dose 0.3 % w/v): 0.05
- Effect fraction ([5]; Dose 0.35 % w/v): 0.05
- Effect fraction ([5]; Dose 0.4 % w/v): 0.09
- Effect fraction ([5]; Dose 0.45 % w/v): 0.16
- Effect fraction ([5]; Dose 0.5 % w/v): 0.39
- Effect fraction ([6]; dose 0.500 % w/v, 45 s, in 20% EtOH): 0.00
- Effect fraction ([6]; dose 0.600 % w/v, 45 s, in 20% EtOH): 0.03
- Effect fraction ([6]; dose 0.650 % w/v, 45 s, in 20% EtOH): 0.07
- Effect fraction ([6]; dose 0.700 % w/v, 45 s, in 20% EtOH): 0.38
- Effect fraction ([6]; dose 0.800 % w/v, 45 s, in 20% EtOH): 1.00

SMILES: CCC(C)(O)CCCC(C)C (centres unmarked) [Tetralinol, 3,7-Dimethyl-3-octanol]
- Effect fraction ([1]; dose 0.2% w/v): 0.88 and 0.54
- Effect fraction ([1]; dose 0.25% w/v): 1.00 and 0.64
- Effect fraction ([1]; dose 0.3% w/v): 1.00 and 0.80
- Log reduction ([2]; dose 0.05% w/v): 0.0 and 0.1
- Effect fraction ([2]; dose 0.075% w/v): 0.17 and 0.29
- Effect fraction ([2]; dose 0.1% w/v): 0.67 and 0.70
- Log reduction ([2]; dose 0.1% w/v): 5.1
- Effect fraction ([2]; dose 0.125% w/v): 0.97 and 0.95
- Effect fraction ([2]; dose 0.15% w/v): 0.95
- Log reduction ([2]; dose 0.15% w/v): 6.9
- Effect fraction ([3]; dose 0.0375 % w/v): 0.17 and 0.22
- Effect fraction ([3]; dose 0.050 % w/v): 0.69 and 0.67
- Log reduction ([3]; dose 0.050 % w/v): 5.2
- Effect fraction ([3]; dose 0.075 % w/v): 0.93 and 0.96
- Log reduction ([3]; dose 0.075 % w/v): 7.5
- Effect fraction ([3]; dose 0.100 % w/v): 0.94 and 0.90
- Log reduction ([4]; Dose 0.02 % w/v): 0.0 and 0.2
- Effect fraction ([4]; Dose 0.04 % w/v): 0.69 and 0.95
- Effect fraction ([4]; Dose 0.05 % w/v): 0.82 and 1.00
- Effect fraction ([5]; Dose 0.025 % w/v): 0.16 and 0.10
- Effect fraction ([5]; Dose 0.05 % w/v): 0.42 and 0.48
- Effect fraction ([5]; Dose 0.075 % w/v): 0.52 and 0.60
- Effect fraction ([5]; Dose 0.1 % w/v): 0.95 and 0.92
- Log reduction ([5]; Dose 0.1 % w/v): 6.9
- Effect fraction ([5]; Dose 0.125 % w/v): 0.95 and 1.00
- Effect fraction ([6]; dose 0.02 % w/v, 45 s, in 20% EtOH): 0.01
- Log reduction ([6]; dose 0.02% w/v, contact 45 s, 20% EtOH): 0.0 and 0.2
- Effect fraction ([6]; dose 0.025 % w/v, 45 s, in 20% EtOH): 0.08
- Effect fraction [6, 7]: 0.09 and 0.11
- Log reduction [6, 7]: 0.8
- Effect fraction ([6]; dose 0.030 % w/v, 45 s, in 20% EtOH): 0.19
- Effect fraction [6, 8]: 0.28 and 0.23
- Log reduction [6, 8]: 1.7
- Effect fraction ([6]; dose 0.035 % w/v, 45 s, in 20% EtOH): 0.68
- Effect fraction ([6]; dose 0.035% w/v, contact 45 s, 20% EtOH): 0.81 and 0.67
- Effect fraction ([6]; dose 0.04% w/v, contact 45 s, 20% EtOH): 1.00
